In all, about 110,000 compounds were measured (“z-score”: median about -0.1, highest 2% from about 2 on). The list shows a part of the results. Calls of active or inactive are those of the source.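 How the source made its calls: active means z-score in the third read window above 3 or below -3; inactive means the rest.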 Residues, ends and D or L forms follow the SMILES beside them. *: point of attachment. Boc = CC(C)(C)OC(=O)*
Biological target: Metabotropic glutamate receptor 8 (Rattus norvegicus) (UniProt P70579)
Chain of UniProt P70579 (P70579 whole entry, looked up): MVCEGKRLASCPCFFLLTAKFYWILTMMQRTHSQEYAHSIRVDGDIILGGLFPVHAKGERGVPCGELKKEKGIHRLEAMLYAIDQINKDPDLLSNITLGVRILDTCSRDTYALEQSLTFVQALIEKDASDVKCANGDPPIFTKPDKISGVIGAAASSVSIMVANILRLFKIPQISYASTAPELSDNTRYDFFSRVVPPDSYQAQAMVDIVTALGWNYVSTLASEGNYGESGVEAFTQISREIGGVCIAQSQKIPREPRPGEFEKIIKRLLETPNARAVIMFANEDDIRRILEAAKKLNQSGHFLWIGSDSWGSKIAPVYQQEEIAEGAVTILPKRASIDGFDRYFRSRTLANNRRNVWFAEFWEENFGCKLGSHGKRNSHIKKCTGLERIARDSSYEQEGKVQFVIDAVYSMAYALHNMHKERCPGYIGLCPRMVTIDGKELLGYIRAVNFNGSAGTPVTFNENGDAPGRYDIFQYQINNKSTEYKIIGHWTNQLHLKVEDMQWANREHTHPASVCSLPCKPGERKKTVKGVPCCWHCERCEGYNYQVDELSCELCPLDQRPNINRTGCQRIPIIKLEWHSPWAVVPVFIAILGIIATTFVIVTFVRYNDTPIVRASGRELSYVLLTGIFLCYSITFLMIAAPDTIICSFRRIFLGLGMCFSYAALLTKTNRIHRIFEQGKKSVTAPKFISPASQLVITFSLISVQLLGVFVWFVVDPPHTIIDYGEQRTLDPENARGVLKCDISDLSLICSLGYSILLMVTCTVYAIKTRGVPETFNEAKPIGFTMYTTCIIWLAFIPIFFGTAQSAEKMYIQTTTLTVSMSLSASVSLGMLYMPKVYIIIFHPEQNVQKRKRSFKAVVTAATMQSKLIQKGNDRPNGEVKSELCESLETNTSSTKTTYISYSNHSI
Test: mGluR8 Gi/Go-coupled signaling modulation – cell-based, rat, thallium flux, HTS, primary screen (AID 488969)
Details: HEK293 rat mGluR8, GIRK (G protein-gated inwardly rectifying potassium channel) thallium flux, FluoZin2; at 10 µM; stronger effect = higher value; submaximal glutamate (EC20) added with thallium

Point of comparison: `Cc1cc(N2CCN(C)CC2)n2cc(-c3ccc(F)cc3)nc2n1`, z-score 0.0487. Against it:
- NC(=O)CNC(=O)[C@@H]1CC2(CC(c3cccc(Br)c3)=NO2)CN1C(=O)c1ccc(Br)cc1 (stereo not given in full) — lower, -0.0921
- COc1ccc(C/C(O)=C(\C#N)c2nc3ccccc3s2)cc1 — lower, -0.184
- CN1CCN(C(=O)C(Cc2ccccc2)NS(=O)(=O)c2ccc3c(c2)CCC(=O)N3)CC1 (stereo not given) — lower, 0.00384
- CCc1cc2c(-c3ccccc3)cc(=O)oc2cc1OC(=O)c1cccs1 — lower, -0.301
- COc1ccc(Nc2nc(CC(C)=O)ns2)cc1 — lower, 0.0451
- CC(=O)c1c(C)[nH]c(C(=O)CSc2nc3ccc(C)cc3[nH]2)c1C — lower, -0.553
- COc1ccc(N2CCN(C(=O)CSc3nnc4c(C)cc5c(C)cc(C)cc5n34)CC2)cc1 — higher, 0.274
- Cc1ccc(S(=O)(=O)N2CCCC2C(=O)OCc2nc3ccccc3s2)cc1 (stereo not given) — lower, -2.03
- C#CCN1C(=O)C(O)(CC(=O)c2cccc(OC)c2)c2ccccc21 (stereo not given) — higher, 0.151
- COc1cccc(NC(=S)NN2C(C)CCCC2C)c1 (stereo not given) — lower, -0.022
- CCn1c(COc2ccc(=O)n(-c3ccccc3)n2)nnc1SCc1ccc(C)cc1 — lower, -0.691
- CC(C)c1nc2ccc(NC(=O)C3CCCCC3)cc2[nH]1 — lower, -0.295
- CC(C)Cn1c(CN2C(=O)c3ccccc3C2=O)nc2ccccc2c1=O — lower, -0.855
- Nc1n[nH]c(-c2ccccc2)n1 — higher, 0.189
- COC(=O)C(C)N(C#N)c1nc(C)cc(C)n1 (stereo not given) — lower, -0.0133
- CCCCCCCCOC(=O)C[N+](C)(C)C/C=C(/C)Cl — higher, 0.0563
- Cc1ccc(C2C3=C(CCCC3=O)Nc3[nH]c(=S)[nH]c(=O)c32)cc1 (stereo not given) — lower, -0.451
- COc1ccc(OC)c(S(=O)(=O)Nc2ccc(Oc3ccccc3)cc2)c1 — higher, 0.377
- CCOc1ccc(-n2c(N)c(C(=O)NCc3cccnc3)sc2=S)cc1 — lower, -0.222
- CC(=O)Nc1ccc(C(=O)/C=C/c2ccco2)cc1 — lower, -0.0867
- O=C(Nc1ccccc1)N1CCC(C(=O)N2CCN(S(=O)(=O)c3cccc(F)c3)CC2)CC1 — higher, 0.549
- C=C(C)c1cccc(C(C)(C)NC(=O)Nc2cc(C)ccn2)c1 — lower, -0.139
- CN1/C(=N\O)c2cccc3cccc1c23 — lower, -0.248
- CN1CCC(=NNC(=O)C(=O)NC2CCCC2)CC1 — lower, -0.0552
- Cn1c(=O)oc2cc(S(=O)(=O)N3CCC(C(=O)NCc4cccs4)CC3)ccc21 — higher, 0.158
- O=C(NCCC(c1ccccc1)c1ccccc1)c1cccs1 — lower, -0.775
- O=C(Nc1cccnc1)C1(c2ccc(Cl)cc2)CCCC1 — lower, -0.598
- CC1=N/C(=C\c2ccc(OC(C)C)cc2)C(=O)N1c1ccc(C(=O)O)cc1 — lower, -0.411
- O=C(NCc1ccco1)C1OCCc2ccccc21 (stereo not given) — higher, 0.314
- Cc1cc(=O)n(CCc2ccccc2)c(O)c1C#N — higher, 1.62
- N#Cc1ccc(-c2ccc(F)cc2)nc1Sc1ccccc1 — lower, -0.196
- COC(=O)CON1C(=O)c2ccccc2C1=O — lower, -0.601
- CC(CCc1ccccc1)NC(=O)c1cncc(Br)c1 (stereo not given) — lower, -0.167
- Cc1cccc(C(=O)N(C)c2nnc(-c3ccncc3)s2)c1 — higher, 0.174
- CCCCOc1ccc(C(=O)NN2CCN(C)CC2)cc1 — lower, -0.111
- CCC(C)NC(=O)C1CCCN(C(=O)NC2CCCCC2)C1 (stereo not given) — higher, 1.16
- COC(=O)c1ccc2c(=O)n(CCN3CCOCC3)c(SCC(=O)C(C)(C)C)nc2c1 — lower, -0.157
- O=C(N/N=C/c1ccc(Cl)c([N+](=O)[O-])c1)c1ccc2nc[nH]c2c1 — lower, -0.2
- CCOc1ccc(N2CC(C(=O)NCCN3C(=O)S/C(=C\c4ccc(OC)c(OC)c4)C3=O)CC2=O)cc1 (stereo not given) — lower, -0.146
- CC1CCN(C(=O)CN2C(=O)c3ccccc3S2(=O)=O)CC1 — lower, -0.102
- COc1ccc(CC(=O)Nc2ccc(-c3cn4ccc(C)cc4n3)cc2)cc1 — higher, 0.488
- CCC(C)C(NC(=O)OC(C)(C)C)C(=O)NC(CC(C)C)C(N)=O (stereo not drawn) (Boc-Ile-Leu-NH2; configuration not given here) — higher, 0.0967
- CC1CN(CC(=O)N2CCc3[nH]c4ccccc4c3C2)CC(C)O1 (stereo not given) — lower, -0.0326
- C=CCn1c(SCC(=O)Nc2ccccc2C)nc2sc(C)c(C)c2c1=O — higher, 0.133
- COc1cc(OC)c(NC(=S)Nc2cccc(C(C)=O)c2)cc1Cl — higher, 0.241
- Cc1ccc(N=Nc2c(=O)[nH]n3c(C)cc(C)nc23)cc1 — lower, -0.121
- CCOC(=O)C1=NN(C(C)=O)C2(CC(=O)N(c3cc(C)cc(C)c3)C2=O)C1 (stereo not given) — lower, -0.292
- COc1cc(CC(C#N)(CO)c2nc3ccccc3[nH]2)ccc1OC(F)F (stereo not given) — lower, -0.212
- CCCNC(=S)Nc1ccc(Oc2ccccc2)cc1 — higher, 0.463
- COc1cc(C(=O)N/N=C/C2CC=CCC2)cc(OC)c1OC (stereo not given) — lower, -0.344
- CN(C)c1ccc(C(=O)N2CC(=O)N(CCc3ccccc3)C(=O)C2)cc1 — lower, -0.365
- CC(=O)Nc1ccc(S(=O)(=O)Nc2nc3c(s2)CCCC3)cc1 — lower, -0.279
- Cc1noc(C)c1S(=O)(=O)N(C)CC(=O)Nc1ccc(F)cc1 — lower, -0.459
- Cc1ccc(NC(=O)COC(=O)c2ccc([N+](=O)[O-])s2)c(C)c1 — higher, 0.229
- N#CC1=C(N)Oc2n[nH]c(-c3cccs3)c2C1c1cccnc1 (stereo not given) — lower, -0.306
- Cc1c(Br)cc(C(=O)O)c(C)c1C — higher, 0.0555
- O=C(N1CCCCC1)N1CCN(c2ccc(Cl)cc2)CC1 — lower, -0.389
- CC(CCO)Nc1nc2c([nH]1)c(=O)n(C)c(=O)n2C (stereo not given) — lower, -0.0354
- CCOc1ccc(N/C=C/C(=O)c2ccc(C)cc2)c([N+](=O)[O-])c1 — lower, 0.012
- CC(Oc1cc(-c2ccccc2)cc2ccccc12)C(=O)N1CCOCC1 (stereo not given) — higher, 0.0871
- CC(=O)NC1N=C(C)N(c2ccccc2)C1=O (stereo not given) — higher, 0.375
- CCc1ccccc1NC1=NCC(=O)N1Cc1ccc(OC)cc1 — higher, 0.186
- CCCCn1nnnc1NCc1cc(OC)c(OC)cc1OC — lower, -0.663
- CCn1c(CNC(=O)c2ccc(OC)cc2)nnc1SC — lower, 0.0397
- CC(=C/c1ccco1)/C=N/NC(=O)Cc1cccn1C — lower, -0.121
- N#Cc1cc(-c2ccccc2)oc1NC(=O)c1ccccc1 — lower, -0.134
- Cc1ccc(/C=N/n2cnc3sc4c(c3c2=O)CCCC4)o1 — lower, -0.367
- CCS(=O)(=O)N1CCN(C(=O)C(c2ccccc2)c2ccccc2)CC1 — lower, -0.138
- O=C(c1ccc2c(c1)OCO2)N1CCN(c2ccccc2F)CC1 — higher, 0.469
- O=C(Nc1nc(-c2cc(Cl)sc2Cl)cs1)c1ccc(Br)s1 — higher, 0.0927
- COC(=O)CNC(=O)CSc1nnc(-c2ccc(OC)cc2)n1CC(C)C — lower, -0.244
- COc1ccc(C)cc1S(=O)(=O)NC1CCCCC1C (stereo not given) — lower, -0.438
- Cc1ccc2nc(C3CCCN(C(=O)NCc4ccccc4)C3)[nH]c2c1 (stereo not given) — lower, -0.131
- O=C(CC1SC(=Nc2ccccc2)N(Cc2ccccn2)C1=O)Nc1cccc(Cl)c1 (stereo not given) — higher, 1.56
- CCOC(=O)c1cc(CC)sc1NC(=O)c1ccc(N2C(=O)CCC2=O)cc1 — lower, -0.383
- CCOc1ccc(N(C(C)C(=O)NC(C)CC)S(C)(=O)=O)cc1 (stereo not given) — lower, -9.49e-05
- O=C(Nc1ccc(Cl)cc1Cl)C1CCC(=O)N1Cc1ccccc1Cl (stereo not given) — higher, 0.652
- CC[n+]1c(/C=C/Nc2ccccc2)sc2ccccc21 — higher, 0.608
- Nc1[nH]ncc1C(=O)Nc1cccc(C(F)(F)F)c1 — lower, -1.87
- CCOC(=O)c1c(NC(=O)CSc2nnc(C)s2)sc2c1CCN(C)C2 — lower, -0.353
- O=C(NCc1ccco1)C1CCN(c2nc3ccccc3n2Cc2ccccc2F)CC1 — lower, -0.777
- O=C1CCCC2=C1C(c1ccccc1O)C1=C(CCCC1=O)O2 — lower, -0.183
- O=C(Nc1ccc(F)cc1F)c1cc(-c2ccco2)on1 — higher, 0.379
- CCc1c(C)nc(SCC(=O)Nc2cccc(Br)c2)[nH]c1=O — lower, -0.299
- O=C(CSc1nnc(-c2ccccc2)n1Cc1ccccc1)NC1CC1 — lower, -0.206
- O=C(c1cccnc1)N1CCN(Cc2ccc3c(c2)OCO3)CC1 — higher, 0.11
- O=C(CN1C(=O)c2cccc3cccc1c23)NCc1ccncc1 — higher, 0.16
- CCOC(=O)CNS(=O)(=O)c1ccc(S(=O)(=O)N2CCCC2)cc1 — lower, -0.0148
- O=C(COC(=O)COc1ccc(Cl)cc1)NC1CCCCC1 — lower, -0.315
- CCN(CC)C(=O)CN(c1ccc(F)c(Cl)c1)S(C)(=O)=O — lower, -0.175
- CC(C)OC(=O)CSc1nnc(-c2cnccn2)n1C — lower, 0.0117
- O=C1c2ccccc2C(=O)c2c1oc(C(F)(F)F)c2C(=O)c1ccccc1 — higher, 0.336
- O=C(Nc1ccc2nc(-c3cccnc3)[nH]c2c1)c1ccccc1F — lower, -0.245
- COc1ccc(N2CCN(C(=O)c3ccc(C)cc3Cl)CC2)cc1 — higher, 0.566
- COc1ccc(Cn2nnnc2C(c2cccs2)N2CCCCCC2)cc1 (stereo not given) — lower, -0.109
- COc1ccc(C2=Nn3c(nnc3-c3ccccc3)SC2)cc1OC — lower, -0.248
- CC(=O)Nc1ccc(OC(=O)c2cc3ccccc3oc2=O)cc1 — lower, -0.191
- O=C(Nc1ccc(F)c(F)c1)c1ccccc1-c1ccccc1 — lower, -0.352
- O=S(=O)(c1cc(Cl)ccc1Br)N1CCOCC1 — higher, 0.587
- CCOc1ccccc1OCCOc1ccc(F)cc1 — lower, -0.0385
- CSCCC(NC(=O)OC(C)(C)C)C(=O)NC(CC(C)C)C(N)=O (stereo not drawn) (Boc-Met-Leu-NH2; configuration not given here) — higher, 0.917
- Cc1ccc(C(=O)Cn2nnc3c(sc4nc5c(c(-c6ccccc6)c43)CCC5)c2=O)cc1 — lower, -0.285
- CC(C)N(C(=O)CSc1nc2ccccc2n1Cc1ccc(F)cc1)C(C)C — higher, 0.19
- O=C(c1ccccc1)N1CCN(C(=O)c2ccccc2)C1c1ccccc1 — lower, -0.731
- O=C(Nc1ccccc1)c1ccc(NCCN2CCOCC2)c(S(=O)(=O)N2CCOCC2)c1 — lower, -0.275
- O=C(C1CCN(S(=O)(=O)c2cccc3cccnc23)CC1)N1CCN(c2ccc(Cl)cc2)CC1 — lower, -1.57
- CCCC/C(O)=C1\C(=O)CC(C)(C)CC1=Nc1ccccc1OC — lower, -0.872

`CCC(C)n1c(=S)[nH]c2c(sc3ccc([N+](=O)[O-])cc32)c1=O` (stereo not given) was tested, and the z-score was active: 9.11.
`O=C(NNC(=S)Nc1cccc2ccccc12)c1cccc(Br)c1` was tested, and the z-score was active: 13.9.

From PubChem BioAssay AID488969 (Vanderbilt High Throughput Screening Facility, 2010)
